This test relates to NCI-H322M lung. Briefly: NCI tumour cell line growth inhibition, 48 h.

Structures are written as SMILES.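 All cell lines were grown in 96-well plates and treated with compound for 48 hours. GI50 is the concentration that inhibits growth by half. At the TGI there is no net growth.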 Some results are limits rather than exact numbers.

Regarding `CCCn1c(=O)c2[nH]c(-c3ccc(OCc4nc5ccccc5[nH]4)cc3)nc2n(CCC)c1=O`, the GI50 is 19 µM and the TGI is above 100 µM.
